Measured values from PubChem BioAssay AID1745853 (National Center for Advancing Translational Sciences (NCATS), 2022).
This is one part of the list. These are further read-outs of the screen, such as a control signal, another cell line or another target. No call is given for them.

Tests used:
Assay in all cases: Primary Screen for Target Class Profiling of Small Molecule Inhibitors of Methyltransferases
[1] = target: Glycine N-methyltransferase (Homo sapiens) (UniProt Q14749); settings: purified enzyme, MTase-Glo SAH luminescence; measured here: GNMT inhibition; at 40 µM; stronger effect = lower value
Procedure, shortened: (§1)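 Each enzyme was assayed with SAM and its substrate. SAH formation detected by MTase-Glo luminescence; single-point 40 uM screen[…].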

[2] = target: Guanidinoacetate N-methyltransferase (Homo sapiens) (UniProt Q14353); settings: purified enzyme, MTase-Glo SAH luminescence; measured here: GAMT inhibition; at 40 µM; stronger effect = lower value
Procedure, shortened: as §1

[3] = target: Histamine N-methyltransferase (Homo sapiens) (UniProt P50135); settings: purified enzyme, MTase-Glo SAH luminescence; measured here: HNMT inhibition; at 40 µM; stronger effect = lower value
Procedure, shortened: as §1

[4] = target: Nicotinamide N-methyltransferase (Homo sapiens) (UniProt P40261); settings: purified enzyme, MTase-Glo SAH luminescence; measured here: NNMT inhibition; at 40 µM; stronger effect = lower value
Procedure, shortened: as §1

[5] = target: Phenylethanolamine N-methyltransferase (Homo sapiens) (UniProt P11086); settings: purified enzyme, MTase-Glo SAH luminescence; measured here: PNMT inhibition; at 40 µM; stronger effect = lower value
Procedure, shortened: as §1
On the % scale 0 is the no-effect control and ±100 the full control effect.

Row | Compound | activity change, negative = inhibition [1] | activity change, negative = inhibition [2] | activity change, negative = inhibition [3] | activity change, negative = inhibition [4] | activity change, negative = inhibition [5]
1 | CCN1c2cc(C(=O)Nc3cccc(C(F)(F)F)c3)ccc2C(=O)N2CCCCC21 (stereo not given) | -22.9% | -4.49% | -18.4% | -8.71% | -10.1%
2 | CCCn1c(=O)c2ccc(C(=O)NCC(C)C)cc2n2c(SCC(N)=O)nnc12 | 8.29% | 0% | 7.29% | 12.2% | 9.47%
3 | COc1cccc(C2c3cccn3-c3sc4c(c3CN2C(=O)Nc2ccc(C)cc2)CCCC4)c1 (stereo not given) | 0.404% | 0% | -2.22% | -2.6% | 4.35%
4 | Cc1ccc2c(c1)N(CCCC(=O)N1CCC(C)(c3noc(C4CC4)n3)CC1)C(=O)CO2 | -7.12% | -4.51% | -2.83% | -13.5% | -4.87%
5 | CC(=O)N1CCC(N2C[C@H](O)C[C@H]2c2nc(CS(=O)(=O)c3ccc(C)cc3)no2)CC1 | -5.11% | -6.95% | -3.09% | -8.32% | -5.33%
6 | CCC(C)NC(=O)c1ccc2c(=O)n(C(C)C)c3nn(Cc4ccc(C)cc4)c(=O)n3c2c1 (stereo not given) | 1.85% | 0% | 3.6% | 1.64% | 1.28%
7 | CCOc1ccc(-c2cc3n(n2)CC(C)(C(=O)NCCC(C)C)N(c2ccccc2CC)C3=O)cc1 (stereo not given) | 2.19% | 4.34% | -0.411% | 2.92% | -4.33%
8 | O=C(O)c1cccc(CC2CCN(C(=O)CCC(F)(F)F)C2)c1 (stereo not given) | -5.37% | -5.59% | -3.45% | -6.46% | -6.37%
9 | CC1(C(=O)NC2CCCCCC2)Cn2c(cc3occc32)C(=O)N1Cc1ccc2c(c1)OCO2 (stereo not given) | 3.13% | -38.7% | 8.37% | -6.19% | 0.764%
10 | O=C(N[C@@H]1CN(C(=O)Nc2ccccc2)CCC[C@H]1O)c1ccc(O)cc1 | -7.01% | -10.9% | -5.76% | -17.3% | -6.93%
11 | Cc1ccc(NC(=O)N2Cc3c(sc4c3CCCC4)-n3cccc3C2c2cc(F)cc(F)c2)cc1 (stereo not given) | 0.167% | 0% | 4.6% | 0.636% | 3.67%
12 | CC(CCc1ccc(O)cc1)NCCc1ccc(O)c(O)c1 (stereo not given) | -10.4% | 10.3% | -25.4% | -3.87% | 4.24%
13 | O=C(CC1CCCC1)N1CC(c2nc(CCOCc3ccccc3)no2)C1 | -0.931% | 2.32% | 1.76% | -10.4% | 14.1%
14 | Cc1nc2c3ccccc3n3c(CCCC(=O)NC4CCN(Cc5ccccc5)CC4)nnc3n2n1 | -3.14% | 4.61% | -11.9% | 10.4% | -0.922%
15 | CCC(C)NC(=O)c1ccc2c(=O)n(Cc3ccccc3)c3nn(Cc4cccc(Cl)c4)c(=O)n3c2c1 (stereo not given) | 0.773% | 1.6% | -0.577% | 2.99% | 1.55%
16 | CC(=O)c1ccc(O[C@@H]2O[C@H](CO[C@@H]3OC[C@@H](O)[C@H](O)[C@H]3O)[C@@H](O)[C@H](O)[C@H]2O)cc1 | 3.95% | 5.86% | 6% | -8.95% | -1.11%
17 | O=c1cc(O)cc(/C=C/c2ccc(O)c(O)c2)o1 | -63.8% | -8.37% | -27% | -13.6% | -0.512%
18 | C[C@H](C(=O)N1CCSCC1)C1CC[C@@]2(C)Cc3sc(Nc4c(Cl)cccc4Cl)nc3[C@@H](C)[C@@H]2[C@H]1O (stereo not given in full) | -3.77% | 0.685% | 0.59% | -1.58% | 9.43%
19 | COc1cccc(N2C(=O)c3cc4ccccc4n3CC2(C)C(=O)NC2CCCCCC2)c1 (stereo not given) | -0.115% | 4.56% | -1.81% | -3.9% | -4.05%
20 | O=C(COCC(=O)N1CCN(C(c2ccccc2)c2ccccc2)CC1)Nc1ccc(Cl)cc1C(=O)O | -33% | 7.28% | 12.6% | -62.4% | -6.77%
21 | Cc1nc2ccccc2c(-c2ccc3c4c(ccnc24)CCO3)c1[C@H](OC(C)(C)C)C(=O)O | 1.44% | -3.58% | 4.13% | -20.8% | -6.23%
22 | O=C(N[C@@H]1C[C@H](Cn2cc(CN3CCS(=O)(=O)CC3)nn2)[C@@H](O)[C@H]1O)C1CCCC1 | -0.698% | 1.48% | 0.537% | -3.07% | -3.49%
23 | CCOC(=O)c1cc2n(n1)CC(C)(C(=O)NC1CCCC1)N(CCc1cccs1)C2=O (stereo not given) | -3.02% | 2.02% | 0.789% | -5.65% | -2.54%
24 | CCCNC(=O)C(C)n1ccc2cc(S(=O)(=O)N3CCCC3)ccc21 (stereo not given) | 8.51% | 0% | 5.67% | 8.99% | 1.85%
25 | Cc1ccccc1COC1CN(C(=O)C2CCN(C(=O)C3CC3)CC2)C1 | -1.58% | 0.543% | 0.109% | -0.705% | 11.3%
26 | Cc1ccc(Cl)cc1NC(=O)CSc1nnc2[nH]c(=O)c(C)nn12 | 11.3% | 0% | 5.69% | 0.621% | -0.879%
27 | O=C(NC1CCCC1)c1ccc2c(=O)n(Cc3ccccc3)c3nn(Cc4ccccc4)c(=O)n3c2c1 | -1.33% | 0.804% | 2.33% | -2.83% | -1.65%
28 | CCC(C(=O)NC(C)C)n1ccc2cc(S(=O)(=O)N3CCCCC3)ccc21 (stereo not given) | 7.82% | 1.7% | 8.57% | 13.9% | 7.22%
29 | CCOc1ccc(-c2cc3c(=O)n(CCNC(=O)c4ccoc4)ccn3n2)cc1 | -4.43% | -1.48% | 1.06% | -0.784% | 2.41%
